85 compounds from ChEMBL document CHEMBL4888484, “Replenishing the malaria drug discovery pipeline: Screening and hit evaluation of the MMV Hit Generation Library 1 (HGL1) against asexual blood stage Plasmodium falciparum ,using a nano luciferase reporter read-out” (2022) can be followed below.

About 540 (0.36%) of roughly 150,000 compounds showed an effect of 50% or more. The list shows a part of the results.

The test system of the test is Plasmodium falciparum. Briefly: Primary screen in NF54 nanoGlo assay, in single point, at 2uM, 72h; a lower Z score goes with more inhibition. The format is functional, Erythrocyte. The settings on record: timepoint 72 hour.
Regarding `CCOc1cc2c(c3[nH]c(C(=O)NC)cc13)O[C@@H](C)C2`, the “% Inhibition” value is -15% and the Z score is on record as 2.12.
As for `COCCN1CCN(C2CCN(c3ccc(-c4cscn4)cc3)CC2)CC1`, the “% Inhibition” value turned out to be 6% and the Z score is on record as -0.77.
In the same order, the values of `CN(Cc1csc(-c2cccs2)n1)C(=O)COC[C@H]1CCCO1` are -9% and 1.71.
In the case of `CCc1nc(NS(=O)(=O)Cc2ccccc2C)no1`, the “% Inhibition” value turned out to be 31% and the Z score is -3.45.
`Cc1csc([C@H](C)N(C)C(=O)c2ncoc2C)n1`: the “% Inhibition” value is on record as -22% and the Z score is reported as 2.33.
In the same order, the values of `C[C@@H](CCNc1ncnc2scnc12)NC(=O)OC(C)(C)C` are -13% and 2.03.
In the same order, the values of `CC1CCN(C(=O)OC(C)(C)C)C(C)C1NS(C)(=O)=O` (stereo not given) are -3% and 0.58.
Consider `CCN1CC2(CCN(C(=O)CNC(N)=O)CC2)C[C@@H](c2ccccc2)C1=O`, for which the “% Inhibition” value is given as -18% and the Z score was found to be 1.64.
Consider `C[C@@H](c1ccc2c(c1)OCCO2)N(C)C(=O)c1cccn1C1CC1`, for which the “% Inhibition” value stood at 3% and the Z score is on record as -0.37.
Turning to `O=C(COc1ccccc1F)N1CCC(=C2CC2)CC1`, the “% Inhibition” value is given as -4% and the Z score is on record as 0.6.
Consider `CCC(CC)(CNC(=O)C1CC2CC(N)C2C1)C(F)(F)F` (stereo not given), for which the “% Inhibition” value is 4% and the Z score is listed as -0.5.
In the case of `COc1cn(CC(=O)N2CCOCC2)c(CN2CCc3ccccc3C2)cc1=O`, the “% Inhibition” value was 1% and the Z score is -0.17.
The corresponding values for `O=C(NCc1ccccc1)C1CCC(Cn2cnnn2)CC1` (stereo not given) are 4% and -0.46.
In the same order, the values of `O=C(c1nccnc1-c1nc2ccccc2s1)N1CCc2sccc2C1` are 32% and -4.1.
The corresponding values for `Cc1ocnc1CNC(=O)NC[C@]1(O)CCCC1(C)C` are 5% and -0.99.
For `Clc1ccc(-c2noc(-c3cccnc3N3CCOCC3)n2)cc1`, the “% Inhibition” value is -7% and the Z score came to 1.01.
The corresponding values for `CCc1cc(CN(C)CCC(=O)Nc2cccnc2)on1` are -2% and 0.3.
Regarding `CCOC[C@@H](O)CN1CCN(c2nc(-c3ccccc3)nc(CC)c2Cc2ccccc2F)CC1`, the “% Inhibition” value is -15% and the Z score is given as 1.98.
`O[C@H]1Cc2ccccc2[C@H]1NC1CCC(O)(C(F)(F)F)CC1` (stereo not given in full): the “% Inhibition” value is -4% and the Z score was 0.32.
The corresponding values for `O=S(=O)(c1cccs1)N(CCO)c1ccc(F)cc1F` are -6% and 1.12.
The corresponding values for `CCn1ccc(C(=O)N(C)Cc2cnn(C(C)C)c2)cc1=O` are -16% and 2.28.
Take `COc1ccccc1CN1C[C@@H](c2nc(CC3CCN(C)CC3)no2)CCC1=O`: the “% Inhibition” value turned out to be 14% and the Z score is on record as -1.78.
In the case of `Cc1ncc(CNC(=O)c2ccc(NC(C)C)nc2)c(N)n1`, the “% Inhibition” value is -6% and the Z score worked out at 0.54.
The corresponding values for `CC(C)C(C)NC(=O)NCC(O)c1ccccc1F` (stereo not given) are 0% and 0.02.
For the compound `COCC(O)CNC1C[C@H](C)CCC1=C(C)C` (stereo not given in full), the “% Inhibition” value stood at 4% and the Z score is reported as -0.59.
The corresponding values for `Cc1ccc(-c2nc(C3(Cn4ccnc4)CC3)n(CC(=O)O)n2)o1` are -6% and 1.16.
In the same order, the values of `CCc1cc(C(=O)N2CCN(c3ccc(OC)cc3)CC2)nc2ccnn12` are -2% and 0.35.
The corresponding values for `CNC(=O)Nc1ccc(C(F)(F)F)nn1` are -15% and 1.47.
`CCn1c(COC(=O)CNC(=O)c2ccccc2OC)nc2cc(S(=O)(=O)N(C)C)ccc21`: the “% Inhibition” value is given as -11% and the Z score is 1.06.
For the compound `Cc1cc(C(=O)Nc2nc(-c3ccc4c(c3)COC4)cs2)on1`, the “% Inhibition” value was -4% and the Z score was determined as 0.66.
In the case of `CCc1nsc(N2CCOC[C@H]2c2ccnn2C)n1`, the “% Inhibition” value is recorded as 0% and the Z score is 0.04.
As to `Cn1c(CN2CC[C@H](NC(=O)c3ccncc3)[C@@H](O)C2)cc2cc(F)ccc21`, the “% Inhibition” value is listed as -6% and the Z score is on record as 1.02.
The corresponding values for `CN(Cc1ccccc1)C(=O)CCC1CCN(C(=O)[C@@H]2CC=CCC2)CC1` are -2% and 0.27.
Turning to `O=C(c1nc2ccccc2s1)N1CCC[C@H](Oc2ccncc2)C1`, the “% Inhibition” value was 1% and the Z score is reported as -0.08.
In the same order, the values of `COc1cccc(C(=O)N/C(=N/c2ccc(F)cc2)N2CCN(C3CCCCC3)CC2)c1` are -6% and 1.2.
On to `c1cc2occc2c(-c2ccnc3[nH]ccc23)n1`, for which the “% Inhibition” value was 0% and the Z score is recorded as -0.04.
The corresponding values for `CC1CCCCN1CCC1CCN(C(=O)C2CCCC23OCCO3)CC1` (stereo not given) are -3% and 0.44.
With `C[C@H](NC(=O)NCCc1c[nH]c2ccc(F)cc12)C1=CCN(C)CC1`, the “% Inhibition” value is 1% and the Z score is on record as -0.11.
The corresponding values for `O=C(NCC1CC1)c1ccc2[nH]c3c(c2c1)CCCCC3` are -12% and 1.65.
Regarding `CC1CC(C)CN(Cc2csc(NC(=O)CCc3cnn(C)c3)n2)C1` (stereo not given), the “% Inhibition” value was -34% and the Z score came out at 4.04.
In the same order, the values of `N#Cc1ccc(C(=O)NC(Cc2ccncc2)[C@H]2C[C@H](O)C2)cn1` (stereo not given in full) are 10% and -1.94.
`COCC1(N(C)Cc2ccccc2Cn2cccn2)CC1`: the “% Inhibition” value was -8% and the Z score turned out to be 1.39.
In the same order, the values of `CCc1c([C@H](C)S(=O)(=O)c2ccccc2)[nH]c(=O)n1-c1ccc(OC(F)(F)F)cc1` are 1% and -0.15.
In the case of `CN(C)[C@@H](C(=O)N1Cc2cncnc2C1)c1ccccc1`, the “% Inhibition” value is -15% and the Z score came out at 2.69.
For `CCCCN(CCCC)C(=O)c1cccc(NC(=O)CCC)c1`, the “% Inhibition” value was -15% and the Z score was 2.86.
The corresponding values for `O=C(N[C@H]1CCO[C@@H]1c1cc[nH]n1)c1cccc(-n2cccn2)n1` are 2% and -0.43.
In the same order, the values of `Cc1nccc(N2CC(N3CCNC3=O)C2)n1` are -9% and 1.
In the same order, the values of `C[C@@H]1C[C@H](O)CN(C(=O)CC(C)(F)F)C1` are -6% and 0.79.
As for `N#Cc1ccccc1N1CCCOC1=O`, the “% Inhibition” value was determined as 5% and the Z score is -0.61.
Consider `Cc1cc(Cl)ccc1OCCNS(=O)(=O)c1ccc2ccccc2c1`, for which the “% Inhibition” value is -15% and the Z score worked out at 1.98.
The corresponding values for `Cc1ccc(-c2ccccc2CN2CCN(C(=O)c3nc[nH]n3)CC2)o1` are 3% and -0.59.
The corresponding values for `Cc1cccc(C(=O)NCCn2nc(C3CC3)ccc2=O)c1` are 3% and -0.41.
In the same order, the values of `CCCCN(CCO)C(=O)Nc1ccnnc1C` are 15% and -1.74.
In the case of `CCN(C(=O)CCN1CCC[C@@H](O)C1)c1ccccc1`, the “% Inhibition” value turned out to be 6% and the Z score was -1.03.
In the same order, the values of `CC(=O)N[C@@H]1CC[C@H]2CCOc3ccccc3C(=O)N3CCN(C4Cc5ccccc5C4)C[C@H]3C(=O)NC[C@H]1O2` are 1% and -0.18.
On to `Cc1nc(-c2cccc(F)c2)nc2c1CC(=O)N2CC(C)C`, for which the “% Inhibition” value is reported as -2% and the Z score is recorded as 0.26.
The corresponding values for `CN1CCCN(c2ccc3ccccc3n2)CC1` are -12% and 1.53.
The corresponding values for `c1cc(Cn2cccn2)cc(-c2nc(-c3cn4ccccc4n3)no2)c1` are -16% and 2.12.
The corresponding values for `CCC(C)(C)NC(=O)CC[C@H]1CCCO1` are 0% and -0.02.
For `CC(C)c1csc(-c2c(-c3ccccc3)ncn2[C@H]2CS(=O)(=O)C[C@@H]2O)n1`, the “% Inhibition” value was -5% and the Z score is listed as 0.86.
In the same order, the values of `CCc1cnc(CN(C)Cc2[nH]c(C)nc2C)s1` are -4% and 0.54.
In the same order, the values of `COC[C@H]1[C@@H](NC(=O)c2ccc(-c3noc(C(C)C)n3)cc2)[C@H]2CCO[C@H]21` are -3% and 0.54.
The corresponding values for `COc1ccc(CNC(=O)c2ccc3c(c2)CC(=O)N3C)cc1OC` are -8% and 0.94.
Regarding `CCn1cc(-c2ccc(C(=O)N(C)C[C@H](O)c3ccccc3)cc2)c(C)n1`, the “% Inhibition” value was determined as 9% and the Z score is on record as -1.17.
Consider `O=C(Nc1cncc(Br)c1O)[C@H](C1CC1)N1CCCC1`, for which the “% Inhibition” value is listed as -10% and the Z score is recorded as 1.87.
In the same order, the values of `Cc1n[nH]cc1CNCCc1ccsc1` are 4% and -0.56.
In the same order, the values of `Cc1cc(C(=O)N2CCNC(=O)C[C@H]2c2ccccc2)nn1-c1ccc(F)cc1` are 13% and -1.54.
The corresponding values for `COc1ccccc1CNC(=O)c1nn(-c2ccccc2OC)c(=O)c2ccccc12` are 8% and -0.91.
On to `O=S(=O)(Cc1ccccc1)N1CC(N2CC(F)(F)C[C@H]2CO)C1`, for which the “% Inhibition” value was -12% and the Z score came out at 1.34.
The corresponding values for `O=C1C[C@H]2CC[C@@H](CN1)N2Cc1ccc(OCc2ccccc2)cc1` are -4% and 0.83.
In the case of `O=C(NCC#CCN1CCOCC1)Nc1ccccc1C(F)(F)F`, the “% Inhibition” value is given as -12% and the Z score is on record as 1.32.
With `Cc1ccc(CNC(=O)CN2CC[C@H](C(=O)N(C)C)C2)s1`, the “% Inhibition” value was -14% and the Z score amounted to 1.83.
With `CC[C@H](NC(=O)c1n[nH]c2c1CN(C)CC2)c1ccc(S(C)(=O)=O)cc1`, the “% Inhibition” value is -5% and the Z score came to 0.64.
Regarding `CNS(=O)(=O)c1ccc(N(C)[C@H]2C[C@@H](OC)C2)c(F)c1`, the “% Inhibition” value turned out to be 3% and the Z score is reported as -0.52.
On to `O=C(Cn1cc(C2CC2)nn1)NCC1([C@H](O)c2ccccc2)CC1`, for which the “% Inhibition” value is -13% and the Z score came to 1.89.
In the case of `O=C(CCn1cnc2cc(S(=O)(=O)N3CCCCC3)ccc21)N1CCN(c2ccccn2)CC1`, the “% Inhibition” value is reported as 4% and the Z score is -0.46.
In the same order, the values of `Cc1cccc(OC(C)(C)c2nc([C@H]3CCOC3)no2)c1` are -7% and 1.33.
On to `COc1cc2c(NC(C)=O)c3n(c2cc1OC)C[C@@](C)(C(=O)NC1CCCCCC1)N(CCC(C)C)C3=O`, for which the “% Inhibition” value amounted to 22% and the Z score is listed as -2.78.
On to `COc1cc([C@H]2CC(O)=Nc3cccc4c3c2cn4Cc2ccccc2)ccc1OCC(N)=O`, for which the “% Inhibition” value is reported as -14% and the Z score came to 2.14.
`O=C1CCN(Cc2ccoc2)CCN1CC1CCCCC1`: the “% Inhibition” value is -15% and the Z score was determined as 1.72.
The corresponding values for `OC1(CCNc2ccc(Cl)cn2)CCCC1` are -13% and 1.49.
The corresponding values for `Cc1csc(CNC(=O)[C@H]2CC(=O)N(C)C2)n1` are -3% and 0.39.
The corresponding values for `Cn1ccc2ccn(CCNS(=O)(=O)Cc3ccccc3)c(=O)c21` are 0% and 0.
With `Cc1oc(C(C)C)cc1C(=O)N1CCNC[C@H]1C(=O)NC1CC1`, the “% Inhibition” value was 15% and the Z score is reported as -1.98.
In the same order, the values of `COc1ccc(CCNC(=O)CC[C@@H](C)[C@H]2CC[C@H]3[C@@H]4CC[C@@H]5C[C@H](O)CC[C@]5(C)[C@H]4C[C@H](O)[C@]23C)cc1` are -1% and 0.17.

As a reminder, the % Inhibition is the change of the read-out against control, counted positive when it falls.
